Experimental data taken from the RNAGym collection of RNA variant scans (doi:10.7554/elife.90254).
The source gives no read counts; variants with many changes may rest on few reads.

B1: LINE1-full (parent)
chain: UACGUAGGUGGUUUUCCCCUGAUAGUGCUAAGGGGGCCUGGAAGUUUGGACUGGGCAGAGCUCAACACAGCGUGGCAAAGUGGCUGUGGCUAGACUGCCUCUCUGGAUUCCUCGUCACUCAGCAGGGCAUCUCUGAGAGAAAUGCC

Variants of: B1
Assay: self-cleavage, relative activity (ratio to wild type); higher = more cleavage; in vitro, sequencing; the parent is a self-cleaving ribozyme

Variant	self-cleavage
UACGUAGGUGGUUUUCCCCUGAUAGUGCCAAGGGGGCCUGAAAGUUCGGACUGGGCAGAGCCCAACACAGCGUGGCAAAGUGGCUGUGGCUAGACUGCCUCUCUGGAUUCCUCGUCACUCAGCAGGGCAUCUCUGAGAGAAAUGCC [U29C G41A U47C U62C]	0
UACGUAGGUGGUUUUCCCCUGAUAGUGCCAAGGGGGCCUGGAAGUUUGGUCUGGGCAGAGCUCAACACAGCGUGGCAAAGUGGCUGUGGCUAGACUGCCUCUCUGGAUUCCUCGUCACCCAGCAGGGCAUCUCUGAGAGAAAUGCC [U29C A50U U119C]	1.94
UACGUAGGUGGUUUUCCCCUGAUAGUGCCAAGGGAGCCUGGGAGUUUGGACUGGGUAGAGCUCAACACAGCGUGGCAAAGUGGCUGUGGCUAGACUGCCUCCCUGGAUUCCUCGUCACUCAGCAGGGCAUUUCUGAGAGAAAUGCC [U29C G35A A42G C56U U102C C131U]	0.05
UACGUAGGUGGUUUUCCCCUGAUAGUGCCAAGGGGGCCUGGAAGUUUGGACUGGGCAGUGCUCAACACAGCGUGGCGAAGUGGCUGUGGCUAGACUGCCUCUCUGGAUUCCUCGUCACUCAGCAGGGCAUCUCUGAGAGAAAUGCC [U29C A59U A77G]	1.09
UACGUAGGUGGUUUUCCCCUGAUAGUGCCAAAGGGGCCUGGAAGUUUGGACUGGGCAGAGCUCAACACAGCGUGGCAAAGUGGCUGUGGCAAGACUGCCUCUCUGGAUUCCUCGUCACUCAGCAGGGCAUCUCUGAGAGAAAUGCC [U29C G32A U91A]	0.59
UACGUAGGUGGUUUUCCCCUGAUAGUGCCAAGGGGGCCUGGAAGUUUGGACUGGGCAGAGCUCAACACGGCGUGGCAAAGUGGCUGUGGCUAGACUGCCUCUCUGGAUCCCUCGUCACUCAGCAGGGCAUCUCUGAGAGAAAUGCC [U29C A69G U109C]	0.43
UACGUAGGUGGUUUUCCCCUGAUAGUGCCAAGGGGGCCUGGAAGUUUGGACUGGGCAGAGCUCAACUCAGCGUGGCGAAGUGGCUGUGGCUAGGCUGCCUCUCUGGAUUCCUCGUCACUCAGCAGGGCAUCUCUGAGAGAAAUGCC [U29C A67U A77G A94G]	0
UACGUAGGUGGUUUUCCCCUGAUAGUGCCAAGGGGGCCUGGAAGUUUGGACUGGGCAGAGCUCAACACAGCGUGGCGAAGUGGCUGUGGCUAGACUGCCUCUCUGGAUUCCUCGUCACUCAGCAGGGCAUCUCUGAGAGGAAUGCC [U29C A77G A140G]	1.76
UACGUAGGUGGUUUUCCCCUGAUAGUGCCAAGGGGGCCUGGAAGUUUGGUCUGGGCAGAGCUCAACACAGCGUGGCAAAGUGGCCGUGGCUAGACUGCCUCUCUGGAUUCCUCGUCACUCAGCAGGGCAUCUCUGAGAGAAAUGCC [U29C A50U U85C]	0.49
UACGUAGGUGGUUUUCCCCUGAUAGUGCCUAGGGGGCCUGGAAGUUUGGACUGGGCAGAGCUCAACACAGCGUGGCAAAGUGGCUGUGGCUAGACUGCCUCUCUGGAUUCCUCGCCACUCAGCAGGGCAUCUCUGAGAGAAAUGCC [U29C A30U U115C]	0.35
UACGUAGGUGGUUUUCCCCUGAUAGUGCCAAGGGGGCCUGGAAGUUUGGACUGGGCAGAGCUCAACCCAGCGUGGCAAAGUGGCUGUGGCUAGACUGCCUCUCAGGAUUCCUCGUCACUCAGCAGGGCAUCUCUGAGAGAAAUGCC [U29C A67C U104A]	0.03
UACGUAGGUGGUUUUCCCCUGAUAGUGCCAAGGGGGCCUGGAAGUUUGGUCUGGGCAGAGCUCAACACAGCGUGGCAAAGUGGCUGUGGCUAGACUGCCUCUCUGGAUUCCUCGUCACUCAGCGGGGCAUCUCUGAGAGAGAUGCC [U29C A50U A124G A141G]	0.88
UACGUAGGUGGUUUUCCCCUGAUAGUGCCAAGGGGGCCUGGGAGUCUGGACAGGGCAGAGCUCAACACAGCGUGGCAAAGUGGCUGUGGCUAGACUGCCUCUCUGGAUUCCUCGUCACUCAGCAGGGCAUCUCUGAGAGAAACGCC [U29C A42G U46C U52A U143C]	1.02
UACGUAGGUGGUUUUCCCCUGAUAGUGCCAAGGGGGCCUGGGAGUUUGGACUGGGCAGAGCUCAACACAGCGUGGCAAAGUGGCUGUGGCUAGACCGCCUCUCUGGAUUCCUCGUCACUCAGUAGGACAUCUCUGAGAGUAAUGCC [U29C A42G U96C C123U G127A A140U]	0.11
UACGUAGGUGGUUUUCCCCUGAUAGUGCCAAGGGGGCCUGGAAGUUUGGACUGGGCAGAGCUCAACACAGCGUGGCAAGGUGGCCGUGGCUAGACUGCCUCUCUGGAUUCCUCGUCACUCAGCAGGGCAUCUCUGAGAGAAAUGCC [U29C A79G U85C]	0
UACGUAGGUGGUUUUCCCCUGAUAGUGCCAAGGGGGCCUGGAAGUUUGGACUGGGCAGAGCUCAACACAGCGUGGCAAAGUGGCUGUGGCUAGACUGCUUCUCUGGAUUCCUCGUCACUCAGCAGGGCAUCUCUGAGAGAGGUGCC [U29C C99U A141G A142G]	0.53
UACGUAGGUGGUUUUCCCCUGAUAGUGCCACGGGGGCCUGGGAGUUUGGACAGGGCAGAGCUCAACACAGCGUGGCAAAGUGGCUGUGGCUAGACUGCCUCUCUGGAUUCCUCGUCACUCAGCAGGGCAUCUCUGAGAGAAAUGCC [U29C A31C A42G U52A]	0.27
UACGUAGGUGGUUUUCCCCUGAUAGUGCCAAGGGGGCCUGGAAGUUUGGACUGGGCAGAGCUCAACACAGCGUGGCAAAGUGGCUGUGGCUAGUCUGCCUCUCUGGAUUCCUCGUCACUCAGCAGGGCGUCUCUGAGAGGAAUGCC [U29C A94U A129G A140G]	0.68
UACGUAGGUGGUUUUCCCCUGAUAGUGCCAAGGGGGCCUGGAAGUUUGGACUGGGCAGAGCUCAGCACAGCGUGGCAAAGUGGCUGUGGCUAGACUGCCUCUCUGGAUUCCACGUCACUCAGCAGGGCAUCUCUGAGAGAAAUGCC [U29C A65G U112A]	0
UACGUAGGUGGUUUUCCCCUGAUAGUGCCAAGGGGGACUGGAAGUUUGGACUGGGCGGAGCUCAACACUGCGUGGCAAAGUGGCUGUGGCUAGACUGCCUCUCUGGAUUCCUCGUCACUCAGCAGGGCAUCUCUGAGAGAAAUGCC [U29C C37A A57G A69U]	0.13
